The other results are listed elsewhere or left out.

The experiment addresses T1, RBFOX1 RRM (Homo sapiens) (UniProt Q9NWB1).
T1 sequence: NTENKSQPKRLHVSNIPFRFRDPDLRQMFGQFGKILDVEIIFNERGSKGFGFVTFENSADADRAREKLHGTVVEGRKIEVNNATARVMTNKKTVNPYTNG
Briefly: EMSA. The note with it: HiTS-Eq, 1 nM pool, 10 min; buffer printed only for the single-RNA assays: 10 mM Tris pH 7.5, 150 mM NaCl, 3.4 mM EDTA, 0.001% NP-40, 30 C.
Regarding “GGGAGACCGGAAUUCAGAUUGUCCCCCAAAAUUAAAUCCCGUCGUAGCCACCA / CAATCTGAATTCCGGTCTCCC / TGGTGGCTACGACGGGATT”, the binding signal (KA relative to UGCAUGU) is 0.0055.
On to “GGGAGACCGGAAUUCAGAUUGUCCUCCUCCCUUAAAUCCCGUCGUAGCCACCA / CAATCTGAATTCCGGTCTCCC / TGGTGGCTACGACGGGATT”, for which the binding signal (KA relative to UGCAUGU) amounted to 0.0127.
Turning to “GGGAGACCGGAAUUCAGAUUGUCCGCUCCCCUUAAAUCCCGUCGUAGCCACCA / CAATCTGAATTCCGGTCTCCC / TGGTGGCTACGACGGGATT”, the binding signal (KA relative to UGCAUGU) was 0.00879.
“GGGAGACCGGAAUUCAGAUUGUCCGGGCUCCUUAAAUCCCGUCGUAGCCACCA / CAATCTGAATTCCGGTCTCCC / TGGTGGCTACGACGGGATT” had a binding signal (KA relative to UGCAUGU) of 0.257.
“GGGAGACCGGAAUUCAGAUUGUCCCCACCUCUUAAAUCCCGUCGUAGCCACCA / CAATCTGAATTCCGGTCTCCC / TGGTGGCTACGACGGGATT” came in with a binding signal (KA relative to UGCAUGU) of 0.00505.

Source of the values: publication PMC9911399.
